Test [1] deals with toll-like receptor 4 (TLR4), mouse, endogenous (mouse (endogenous in heart tissue and peritoneal macrophages)) (UniProt Q9QUK6). Put plainly: co-IP; MPM lysates; cells exposed to HG in medium without serum.
The target is the same in test [2]. Put plainly: condition: only cells pretreated with 10 μM MD2 inhibitor L6H21 for 30 min; co-IP; MPM lysates; cells pretreated with 10 μM MD2 inhibitor L6H21 for 30 min before HG (33 mM glucose).
For test [3] the target is unchanged. Nature of the test: condition: only cells given 30 μg/mL MGO-BSA or CML-BSA in place of AGE-BSA; co-IP; MPM lysates; cells exposed to 30 μg/mL MGO-BSA or CML-BSA in place of AGE-BSA.
For test [4] the target is unchanged. Nature of the test: co-IP; mouse primary peritoneal macrophage (MPM) lysates, endogenous proteins; cells in medium with FBS exposed to HG (33 mM glucose; MD2-TLR4 at 5 min, TLR4-MyD88 at 15 min) or to AGE-BSA.
Test [5] deals with T1, toll-like receptor 4 (TLR4), rat, endogenous (rat (endogenous in H9C2 and primary cardiomyocytes)) (UniProt Q9QX05).
T1 sequence: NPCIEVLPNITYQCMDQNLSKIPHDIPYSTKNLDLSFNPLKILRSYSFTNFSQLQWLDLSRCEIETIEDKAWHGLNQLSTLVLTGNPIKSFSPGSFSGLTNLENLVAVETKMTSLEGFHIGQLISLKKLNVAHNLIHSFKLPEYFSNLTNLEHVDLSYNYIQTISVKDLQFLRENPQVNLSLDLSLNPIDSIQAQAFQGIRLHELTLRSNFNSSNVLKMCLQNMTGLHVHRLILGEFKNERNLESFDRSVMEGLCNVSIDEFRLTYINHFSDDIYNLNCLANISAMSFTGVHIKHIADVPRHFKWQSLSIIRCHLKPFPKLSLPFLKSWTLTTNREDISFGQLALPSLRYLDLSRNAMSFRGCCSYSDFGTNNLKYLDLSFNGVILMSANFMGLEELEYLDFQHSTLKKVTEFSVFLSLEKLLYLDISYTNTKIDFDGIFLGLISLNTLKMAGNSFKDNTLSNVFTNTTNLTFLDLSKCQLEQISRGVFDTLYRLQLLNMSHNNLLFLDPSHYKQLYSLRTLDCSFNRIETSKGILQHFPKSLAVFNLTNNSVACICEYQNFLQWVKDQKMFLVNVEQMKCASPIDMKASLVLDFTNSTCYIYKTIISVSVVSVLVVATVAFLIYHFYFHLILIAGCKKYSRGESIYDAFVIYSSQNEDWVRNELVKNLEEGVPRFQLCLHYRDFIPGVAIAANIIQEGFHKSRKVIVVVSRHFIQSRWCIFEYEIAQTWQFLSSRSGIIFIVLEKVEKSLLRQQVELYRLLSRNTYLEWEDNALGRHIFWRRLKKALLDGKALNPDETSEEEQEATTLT
Nature of the test: co-IP; H9C2 lysates; cells exposed to HG in medium without serum.

Amino acid sequences for entries named in this document (tags omitted). Residues count along the entry.
UniProt Q9QUK6, residues 26-835: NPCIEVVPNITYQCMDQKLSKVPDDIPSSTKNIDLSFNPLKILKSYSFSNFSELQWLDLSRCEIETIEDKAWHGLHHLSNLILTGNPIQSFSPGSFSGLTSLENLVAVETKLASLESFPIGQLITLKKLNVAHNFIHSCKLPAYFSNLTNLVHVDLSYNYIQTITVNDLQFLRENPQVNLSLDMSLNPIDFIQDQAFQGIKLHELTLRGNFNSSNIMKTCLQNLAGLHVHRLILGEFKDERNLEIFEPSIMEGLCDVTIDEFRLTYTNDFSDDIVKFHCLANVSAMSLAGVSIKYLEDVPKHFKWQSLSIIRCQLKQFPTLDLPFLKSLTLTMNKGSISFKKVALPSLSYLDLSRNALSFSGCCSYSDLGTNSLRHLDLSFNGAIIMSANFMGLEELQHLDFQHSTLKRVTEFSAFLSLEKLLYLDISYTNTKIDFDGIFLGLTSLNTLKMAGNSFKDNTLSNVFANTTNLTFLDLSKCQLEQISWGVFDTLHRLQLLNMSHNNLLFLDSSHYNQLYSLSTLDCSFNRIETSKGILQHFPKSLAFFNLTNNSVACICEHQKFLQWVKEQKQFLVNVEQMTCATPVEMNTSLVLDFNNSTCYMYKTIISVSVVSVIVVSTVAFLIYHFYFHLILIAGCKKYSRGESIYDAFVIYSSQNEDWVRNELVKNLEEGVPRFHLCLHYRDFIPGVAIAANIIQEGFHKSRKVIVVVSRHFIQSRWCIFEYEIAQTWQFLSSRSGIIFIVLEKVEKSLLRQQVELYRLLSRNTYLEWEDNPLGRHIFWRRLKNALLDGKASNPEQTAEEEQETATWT
UniProt O00206, residues 24-839: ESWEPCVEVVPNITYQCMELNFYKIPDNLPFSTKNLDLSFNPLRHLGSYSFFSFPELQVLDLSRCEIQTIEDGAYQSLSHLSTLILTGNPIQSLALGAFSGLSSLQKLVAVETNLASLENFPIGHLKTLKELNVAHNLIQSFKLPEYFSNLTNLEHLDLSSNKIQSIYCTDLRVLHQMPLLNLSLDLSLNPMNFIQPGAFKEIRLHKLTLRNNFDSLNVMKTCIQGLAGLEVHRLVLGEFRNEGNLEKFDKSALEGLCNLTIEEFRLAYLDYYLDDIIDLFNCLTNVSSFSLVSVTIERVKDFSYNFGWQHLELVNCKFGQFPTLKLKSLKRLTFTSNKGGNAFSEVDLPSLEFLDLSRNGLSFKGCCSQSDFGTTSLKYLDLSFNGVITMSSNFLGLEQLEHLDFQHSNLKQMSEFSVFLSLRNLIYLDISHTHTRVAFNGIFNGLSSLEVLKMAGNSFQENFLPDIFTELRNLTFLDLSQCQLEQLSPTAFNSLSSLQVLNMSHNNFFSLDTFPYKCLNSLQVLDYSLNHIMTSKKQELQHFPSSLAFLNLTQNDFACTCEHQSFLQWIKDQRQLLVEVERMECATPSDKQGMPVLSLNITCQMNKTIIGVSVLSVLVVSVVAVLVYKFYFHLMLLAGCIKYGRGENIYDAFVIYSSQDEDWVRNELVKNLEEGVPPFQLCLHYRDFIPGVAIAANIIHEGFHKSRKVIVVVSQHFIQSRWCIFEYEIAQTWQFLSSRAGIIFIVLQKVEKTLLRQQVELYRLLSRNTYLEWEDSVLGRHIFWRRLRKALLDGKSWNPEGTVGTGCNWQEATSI
UniProt P22366: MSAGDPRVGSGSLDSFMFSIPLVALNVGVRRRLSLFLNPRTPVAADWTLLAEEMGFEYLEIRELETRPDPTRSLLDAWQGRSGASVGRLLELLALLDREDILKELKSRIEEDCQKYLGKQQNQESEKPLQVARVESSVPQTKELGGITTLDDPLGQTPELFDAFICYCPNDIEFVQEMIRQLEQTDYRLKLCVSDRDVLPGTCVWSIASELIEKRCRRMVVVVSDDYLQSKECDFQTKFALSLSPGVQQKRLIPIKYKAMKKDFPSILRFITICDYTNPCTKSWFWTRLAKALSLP
UniProt Q6Y1S1: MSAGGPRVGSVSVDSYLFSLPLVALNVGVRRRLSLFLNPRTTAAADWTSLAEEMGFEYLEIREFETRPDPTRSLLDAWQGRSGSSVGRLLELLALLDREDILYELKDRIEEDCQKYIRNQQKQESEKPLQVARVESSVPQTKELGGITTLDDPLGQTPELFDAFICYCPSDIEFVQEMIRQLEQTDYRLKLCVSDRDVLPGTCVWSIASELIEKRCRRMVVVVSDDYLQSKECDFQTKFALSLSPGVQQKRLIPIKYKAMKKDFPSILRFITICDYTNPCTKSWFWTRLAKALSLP

Test [6] addresses T1, toll-like receptor 4 (TLR4), rat, endogenous (rat (endogenous in H9C2 and primary cardiomyocytes)). Nature of the test: co-IP; H9C2 lysates, endogenous proteins; cells in medium with FBS exposed to HG (33 mM glucose, 5-30 min; 7-60 mM) or to AGE-BSA; also after siRNA to MD2, TLR4 or GLUT4, RAGE shRNA, NAC, 2-DG, polymyxin B or RS-LPS.
Test [7] shares this target. Put plainly: condition: only cells given 30 μg/mL MGO-BSA or CML-BSA in place of AGE-BSA; co-IP; H9C2 lysates; cells exposed to 30 μg/mL MGO-BSA or CML-BSA in place of AGE-BSA.
For test [8], the target named is toll-like receptor 4 (TLR4), mouse, endogenous (mouse (endogenous in heart tissue and peritoneal macrophages)) (UniProt Q9QUK6). Put plainly: co-IP; homogenized mouse heart tissue lysates (non-diabetic controls, STZ diabetic mice at 16 weeks, db/m and db/db mice); precipitating antibody overnight at 4 °C, protein A + G-sepharose, immunoblot. Background: In western blotting, separated proteins are transferred to a membrane and probed.

For test [9], the target named is toll-like receptor 4 (TLR4), human, endogenous (human (endogenous in PBMCs)) (UniProt O00206). Put plainly: co-IP; human peripheral blood mononuclear cells of healthy and diabetic subjects; blots of AGE-MD2 complexes.

These are yes or no findings as the source states them, for the method shown. In cells and extracts the contact can be indirect. Some binding calls cover weakened binding; strength is not graded here.

Take “myeloid differentiation primary response-88 (MyD88), mouse, endogenous (from UniProt P22366 1-296)”: the binding entry is on record as “no binding (condition: HG in medium without serum)” in test [1], “no binding” in test [2], “no binding” in [3] and “binds” in test [4].

Consider “myeloid differentiation primary response-88 (MyD88), rat, endogenous (from UniProt Q6Y1S1 1-296)”, for which the binding result is “no binding (condition: HG in medium without serum)” in test [5], “binds” in [6] and “no binding” in [7].

B1: myeloid differentiation 2 (MD2), mouse, endogenous (protein, UniProt Q9JHF9 19-160)
chain: EKQQWFCNSSDAIISYSYCDHLKFPISISSEPCIRLRGTNGFVHVEFIPRGNLKYLYFNLFISVNSIELPKRKEVLCHGHDDDYSFCRALKGETVNTSIPFSFEGILFPKGHYRCVAEAIAGDTEEKLFCLNFTIIHRRDVN
Turning to B1, the binding result is on record as “no binding (condition: HG in medium without serum)” in test [1]; “no binding” in test [2]; “binds” in test [8]; “no binding” in test [3]; “binds” in test [4].

B2: recombinant human MD2 (rhMD2) (natural protein, UniProt Q9Y6Y9 19-160, looked up)
chain: QKQYWVCNSSDASISYTYCDKMQYPISINVNPCIELKRSKGLLHIFYIPRRDLKQLYFNLYITVNTMNLPKRKEVICRGSDDDYSFCRALKGETVNTTISFSFKGIKFSKGKYKCVVEAISGSPEEMLFCLEFVILHQPNSN
notes: MD2 (myeloid differentiation 2), human, recombinant; also called human recombinant MD2 protein; source: bought: R&D Systems
Take B2: the binding entry in [9] was “binds”.

The record behind these values is article PMC7195432, “MD2 activation by direct AGE interaction drives inflammatory diabetic cardiomyopathy” (Nature Communications, 2020).
